PubChem BioAssay AID686978 (National Center for Advancing Translational Sciences (NCATS), 2013)
Hit rate of the full screen: of about 420,000 compounds, about 64,000 (15%) were called active. The inconclusive results got no clear call from the source; some entries with a clear call stand among them for comparison. Calls follow the shape of the dose curve; as a rule, active = well fitted inhibition curve with a large enough effect; inconclusive = small, poorly fitted or top-dose-only effect; inactive = flat fitted curve, though single readings scatter. No potency is given beside an inconclusive call; the fits are too rough.

Assay: qHTS for Inhibitors of human tyrosyl-DNA phosphodiesterase 1 (TDP1): qHTS in cells in absence of CPT; also: nearly all actives have a fitted effect of over 55% in size
Conditions: DT40 Tdp1-/- hTDP1 cells, no CPT, ATP luminescence, 48 h; activity change, negative = growth inhibition: at 46.2 µM (top of the series)
Outline: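 Chicken DT40 Tdp1-/- cells stably complemented with human TDP1 were seeded at 400 cells/well with DMSO in place of 20 nM camptothecin. After compound pinning, cells grew at least 48 hr at 37 °C; viability read by CellTiter-Glo luminescence.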
% is scaled to controls: 0 for no effect and ±100 for the full control effect; potency is read from the fitted curve at half-maximal effect; tags tell the direction and shape of the fitted curve.

SMILES | activity change, negative = growth inhibition | Potency
O=C(Nc1nnc([C@H]2C[C@H](O)[C@@H](CO)O2)s1)NC1CCCCC1 | inactive: 6.72% | 
CCOC(=O)c1cc(-c2ccccc2)sc1NC(=O)CCN1C(=O)c2ccccc2C1=O | inconclusive: -32.7% [inhibitor] | 
Cc1nnc(SC(C)C#N)n1-c1ccccc1 (stereo unspecified) | inactive: -5.62% | 
O=C(Nc1ccc(S(=O)(=O)N2CCOCC2)cc1)c1ccc(Cl)cc1 |  | active: 20.6 µM
COc1ccc(C(=O)Nn2c(CC(C)C)nc3cc(OC)c(OC)cc3c2=O)c(OC)c1 |  | inconclusive [inhibitor, single point]
COc1ccccc1NC(=O)CSc1n[nH]c(-c2ccccn2)n1 |  | active: 14.6 µM
Cc1ccc(S(=O)(=O)Nc2nc3cc(C)c(C)cc3[nH]2)cc1 |  | inconclusive [inhibitor, partial curve]
COCc1cc(C)nc2sc(C(=O)Nc3ccc(C(C)=O)cc3)c(N)c12 |  | inconclusive [inhibitor, partial curve]
COc1cccc(OCc2nc(-c3cccc([N+](=O)[O-])c3)no2)c1 |  | inconclusive [inhibitor, partial curve]
CN(C)C(=O)c1ccc(Nc2nc(-c3cccs3)nc3ccccc23)cc1 |  | active: 7.31 µM
O=C1NC(=O)C(CC(=O)N(c2ccccc2)C2(C(=O)NC3CCCC3)CCCCC2)N1 (stereo unspecified) | inactive: -13.9% | 
COc1cc(OC)cc(C(=O)N[C@H](C(=O)OCC(=O)Nc2cccc(F)c2)C(C)C)c1 |  | inconclusive [inhibitor, single point]
CCC1(C2CCN(Cc3ccoc3)CC2)NC(=O)N(CC2COc3ccccc3O2)C1=O (stereo unspecified) | inactive: -23.8% | 
CCc1cccc(NC(=O)CSc2nc3ccccc3nc2N2CCCCC2)c1 |  | active: 16.4 µM
COc1ccc(OCC(=O)Nc2cccc(C(=O)OCc3cc(=O)n4nc(C)sc4n3)c2)cc1 |  | inconclusive [inhibitor, partial curve]
COc1cccc(NC(=O)c2sc3nc(C)c(C(=O)Nc4ccc(C)cc4C)c(-c4ccco4)c3c2N)c1 |  | inconclusive [inhibitor, partial curve]
COc1ccc(CN2CC(=O)N(c3ccc(C)cc3)C2=S)cc1OC | inconclusive: -35.5% [inhibitor] | 
CCc1ccccc1NC(=O)COc1ccc(C(=S)N2CCCC2)cc1 | inactive: -17.9% | 
Cc1nn(-c2ccccc2)c2sc(C(=O)Nc3cccc(Cl)c3)cc12 |  | active: 23.1 µM
O=C(NCC1CCN(C(=O)c2ccc([N+](=O)[O-])cc2)CC1)c1ccc([N+](=O)[O-])cc1 |  | inconclusive [inhibitor, single point]
Nc1nc2nc(-c3ccccc3)cc(C(F)(F)F)c2s1 |  | inconclusive [inhibitor, single point]
N=c1n(CC(=O)c2cccc([N+](=O)[O-])c2)c2ccccc2n1Cc1ccccc1 |  | active: 20.6 µM
CCC(=O)N1CCc2cc(CNS(=O)(=O)c3ccc(C(C)C)cc3)ccc21 |  | inconclusive [inhibitor, single point]
C=CCn1c(SC(C)C#N)nc2ccccc2c1=O (stereo unspecified) |  | inconclusive [inhibitor, single point]

SMILES | activity change, negative = growth inhibition | Potency
CCc1ccc(N2CC(C(=O)OCC(=O)c3c(N)n(CC(C)C)c(=O)n(C)c3=O)CC2=O)cc1 (stereo unspecified) |  | inconclusive [inhibitor, single point]
Cc1ncc(COP(=O)(O)O)c(CN)c1O | inactive: -22.4% | 
Cc1cc2c(=O)[nH]c(Cc3ccccc3)nc2s1 |  | inconclusive [inhibitor, single point]
CCCN1CCC(NC(=O)C2CCN(C(C)=O)CC2)CC1 | inactive: -2.7% | 
Cc1ccc(C)c(N2CCN(C(=O)CCS(=O)(=O)c3cc(Br)cc4c3N(C(=O)C3CC3)CC4)CC2)c1 |  | inconclusive [inhibitor, single point]
Cc1ccc(NC2Nc3cc(C)nn3S2)c(C)c1 (stereo unspecified) | inactive: -9.68% | 
COc1ccc(CNC(=O)C(Cc2ccccc2)NS(=O)(=O)c2ccc3c(c2)CCN3C(C)=O)cc1 (stereo unspecified) | inactive: -13.4% | 
CCC(CC)NC(=O)Nc1cccc(C)c1C | inactive: -1.4% | 
O=C1c2ccccc2/C(=C\c2ccc3[nH]ccc3c2)N1c1ccccc1 |  | inconclusive [inhibitor, single point]
Oc1cc2c(cc1C(c1ccc(Cl)c(Cl)c1)N1CCCC1)OCO2 (stereo unspecified) |  | active: 23.1 µM
CCCOc1ccc(F)cc1-c1cc(C(=O)Nc2ccc(OC)nc2)[nH]n1 |  | active: 18.4 µM
O=C(NCc1ccncc1)C(=O)NCC(c1ccco1)N1CCN(c2ccccc2)CC1 (stereo unspecified) | inactive: -2.03% | 
COc1ccc(CN(C)C(=O)c2ccc(NC(=O)CC3SC(N4CCCCC4)=NC3=O)cc2)c(OC)c1 (stereo unspecified) |  | inconclusive [inhibitor, single point]
O=C(NNC(=O)c1ccc(-n2cncn2)c([N+](=O)[O-])c1)c1ccc(Cl)cc1 | inactive: -15.1% | 
S=C1CSc2ccccc2N1 |  | inconclusive [inhibitor, single point]
Cc1noc(-c2ccccc2)c1NC(=O)Nc1ccccc1 |  | inconclusive [inhibitor, partial curve]
CC(Sc1nc(-c2ccccc2)cs1)C(=O)Nc1ccc(Cl)cn1 (stereo unspecified) |  | inconclusive [inhibitor, single point]
O=C(NCC(=O)N1CCCCCCC1)c1ccc(Cl)c(Cl)c1 |  | inconclusive [inhibitor, partial curve, poor fit]
O=C(NCC(=O)N(c1ccccc1)C(C(=O)NCC1CCCO1)c1ccccc1)c1cccs1 (stereo unspecified) | inactive: -18% | 
O=C1CC(c2ccc(S(=O)(=O)NCc3ccncc3)cc2)CN1 (stereo unspecified) |  | inconclusive [inhibitor, single point]
COc1ccc(C(=O)N2CCCCC2c2cc(C(=O)Nc3cccc(C#N)c3)no2)cc1 (stereo unspecified) |  | inconclusive [inhibitor, single point]
CCCSc1ncc(Cl)c(C(=O)N2CCN(c3cccc(Cl)c3)CC2)n1 |  | inconclusive [inhibitor, partial curve]
NS(=O)(=O)c1ccc(N=Nc2c(-c3ccccc3)[nH]n(-c3nc(-c4ccccc4)cs3)c2=O)cc1 |  | active: 3.26 µM
Cc1ccc2[nH]c3c(=O)n(CC(=O)NCCCN(C)Cc4ccccc4)ncc3c2c1 |  | inconclusive [inhibitor, single point]

SMILES | activity change, negative = growth inhibition | Potency
CC/C(=N\NC(=O)c1nnn(-c2nonc2N)c1-c1cccs1)c1ccccc1 | inconclusive: -30.9% [inhibitor] | 
COc1ccc(NC(=O)C2(C)CCN2C(=O)Cc2ccc(Cl)cc2Cl)cc1OC (stereo unspecified) |  | active: 20.6 µM
O=C(CCC(=O)NNC(=O)c1ccccc1[N+](=O)[O-])NCc1ccccc1 | inactive: 4.98% | 
Cc1ccc(Cn2c(CO)cnc2SCC(=O)NCc2ccccc2Cl)cc1 | inconclusive: -31.5% [inhibitor] | 
CC(C)[C@@H](C(=O)NC1CCCC1)N1C(=O)N2CCc3c([nH]c4ccccc34)[C@@]2(C)C1=O |  | inconclusive [inhibitor, single point]
O=C(CCCN1C(=O)/C(=C\c2cccs2)SC1=S)Nc1ccccc1O |  | inconclusive [inhibitor, single point]
O=S(=O)(NN=Cc1ccc(O)cc1O)c1cc(Cl)c(Cl)cc1Cl | inactive: 5.06% | 
Cc1c(Cl)cccc1NC(=S)/C(=C(\[O-])c1ccc(Cl)s1)[n+]1ccccc1 | inactive: -23% | 
O=S(=O)(/N=C(/Nc1cccc2ccccc12)c1ccccc1)c1ccccc1 |  | inconclusive [inhibitor, single point]
CC(C)CNC(=O)C1(C)CCCN1C(=O)c1cccnc1Oc1ccccc1 (stereo unspecified) | inactive: -8.37% | 
Cn1nc(C(F)(F)F)c(-c2ccccc2)c1NC(=O)CSCC(=O)O | inactive: 0.852% | 
NC(=O)C1CCN(c2nc(-c3ccccc3)nc3c2oc2ccccc23)CC1 |  | inconclusive [inhibitor, single point]
N#C/C(=C/c1ccccc1Cl)c1nc2ccccc2c(=O)[nH]1 | inactive: 4.48% | 
CC1CCCC(C)N1C(=O)CN1C(=O)NC2(CCOc3ccccc32)C1=O (stereo unspecified) | inactive: -23.5% | 
Cc1ccccc1NC(=O)CNc1ccccc1N1CCCCC1 |  | inconclusive [inhibitor, single point]
Cc1ccc(NS(=O)(=O)c2ccc(OCC(=O)NCc3ccco3)cc2)cc1 |  | inconclusive [inhibitor, single point]
CCOC(=O)C1C(c2cccc([N+](=O)[O-])c2)C2C(=O)NN=C2CC1(C)O (stereo unspecified) |  | inconclusive [inhibitor, single point]
CC1CCN(C(=O)Cn2nnc(-c3ccc(C(C)C)cc3)n2)CC1 |  | inconclusive [inhibitor, partial curve, poor fit]
O=C(NCc1ccc(Cl)cc1)c1ccc(CS(=O)Cc2cccc(Cl)c2)o1 (stereo unspecified) |  | inconclusive [inhibitor, single point]
Cc1cc(Cl)cc(C)c1OCC(=O)N1CCN(c2ncccn2)CC1 |  | inconclusive [inhibitor, single point]
COc1ccc(C(=O)N(C)CC(O)c2ccccc2)cc1OC1CCN(C(C)=O)CC1 (stereo unspecified) | inactive: 18.6% | 
CCOC(=O)c1c(CN2CCN(C)CC2)n(C)c2cc(Br)c(OC)cc12 |  | inconclusive [inhibitor, single point]
CN(Cc1ccccc1)C(=O)c1ccc([N+](=O)[O-])o1 |  | inconclusive [inhibitor, single point]
